Reference: the supplement of paper PMC4967469
A lower IC50 marks a more sensitive line; a limit (>, <) means that the fit lies beyond the doses tested. AUC is the area under the same curve over the 256-fold range up to the top dose, as a fraction; values near 1 show little effect. For part of these data: An inferred top dose comes from the curve model; the source does not state it.

Columns and labels:
Experiment in all cases: Viability of human cancer cell lines after 72 h of drug (GDSC screen)
XMD15-27 = compound: C=CC(=O)Nc1ccc(C(=O)c2sc(Nc3ccc(N4CCN(C)CC4)cc3OC)nc2N)cc1 [XMD15-27]; conditions: top dose 10.24 µM; top dose inferred
Procedure: (§1)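 Human cancer cell lines in 384-well plates, medium with 10% serum, drug for 72 h over a 256-fold dose range (nine 2-fold or five 4-fold steps up to the top dose). Adherent lines were fixed and stained with the nucleic acid dye Syto60, suspension lines read with resazurin; signal relative to control wells, capped at 0 and 100%. One two-parameter sigmoid per drug and line, fitted in a mixed model over all curves with the slope shared within a line.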

SL 0101-1 = compound: CC(=O)O[C@@H]1[C@@H](OC(C)=O)[C@@H](O)[C@H](Oc2c(-c3ccc(O)cc3)oc3cc(O)cc(O)c3c2=O)O[C@H]1C [SL 0101-1]; conditions: top dose 10 µM; top dose inferred
Procedure: as §1

Temsirolimus = compound: CO[C@H]1C[C@@H]2CC[C@@H](C)[C@@](O)(O2)C(=O)C(=O)N2CCCC[C@H]2C(=O)O[C@H]([C@H](C)C[C@@H]2CC[C@@H](OC(=O)C(C)(CO)CO)[C@H](OC)C2)CC(=O)[C@H](C)/C=C(\C)[C@@H](O)[C@@H](OC)C(=O)[C@H](C)C[C@H](C)/C=C/C=C/C=C/1C [Temsirolimus]; conditions: top dose 0.2 µM
Procedure: as §1

Row | Cell Line | AUC (XMD15-27) | IC50 (XMD15-27) [µM] | AUC (SL 0101-1) | IC50 (SL 0101-1) [µM] | AUC (Temsirolimus) | IC50 (Temsirolimus) [µM]
1 | SK-MG-1 (glioma, adherent) | 0.987 | > 10.2 | 0.987 | > 10 | 0.731 | 0.0575
2 | SK-MM-2 (myeloma, suspension) | 0.981 | > 10.2 | 0.987 | > 10 | 0.97 | > 0.2
3 | SK-N-AS (neuroblastoma, adherent) | 0.934 | > 10.2 | 0.976 | > 10 | 0.759 | 0.08
4 | SK-N-FI (neuroblastoma, adherent) | 0.99 | > 10.2 | 0.989 | > 10 | 0.924 | > 0.2
5 | SK-N-SH (neuroblastoma, adherent) | 0.983 | > 10.2 | 0.987 | > 10 | 0.899 | > 0.2
6 | SK-PN-DW (Ewing sarcoma, adherent) | 0.986 | > 10.2 | 0.969 | > 10 | 0.567 | 0.0192
7 | SK-UT-1 (soft tissue, adherent) | 0.989 | > 10.2 | 0.989 | > 10 | 0.684 | 0.0387
8 | SKG-IIIa (cervix, adherent) | 0.983 | > 10.2 | 0.983 | > 10 | 0.832 | 0.195
9 | SKN (uterus, adherent) | 0.889 | > 10.2 | 0.975 | > 10 | 0.417 | 0.00704
10 | SKN-3 (head and neck, adherent) | 0.978 | > 10.2 | 0.96 | > 10 | 0.95 | > 0.2
11 | SLVL (B-cell lymphoma, suspension) | 0.969 | > 10.2 | 0.975 | > 10 | 0.851 | 0.168
12 | SNB75 (glioma, adherent) | 0.974 | > 10.2 | 0.965 | > 10 | 0.814 | 0.18
13 | SNG-M (endometrium, adherent) | 0.974 | > 10.2 | 0.968 | > 10 | 0.888 | > 0.2
14 | SNU-61 (large intestine, adherent) | 0.975 | > 10.2 | 0.982 | > 10 | 0.981 | > 0.2
15 | SNU-81 (large intestine, adherent) | 0.981 | > 10.2 | 0.982 | > 10 | 0.519 | 0.0143
16 | SNU-387 (liver, adherent) | 0.984 | > 10.2 | 0.984 | > 10 | 0.674 | 0.0411
17 | SNU-407 (large intestine, adherent) | 0.983 | > 10.2 | 0.979 | > 10 | 0.731 | 0.0644
18 | SNU-449 (liver, adherent) | 0.986 | > 10.2 | 0.978 | > 10 | 0.897 | > 0.2
19 | SNU-C1 (large intestine, suspension) | 0.98 | > 10.2 | 0.95 | > 10 | 0.705 | 0.063
20 | SNU-C2B (large intestine, adherent) | 0.976 | > 10.2 | 0.934 | > 10 | 0.84 | > 0.2
21 | SNU-C5 (large intestine, adherent) | 0.986 | > 10.2 | 0.986 | > 10 | 0.89 | > 0.2
22 | ST486 (Burkitt lymphoma, suspension) | 0.907 | > 10.2 | 0.985 | > 10 | 0.921 | > 0.2
23 | SU8686 (pancreas, adherent) | 0.985 | > 10.2 | 0.981 | > 10 | 0.455 | 0.00926
24 | SU-DHL-4 (B-cell lymphoma, suspension) | 0.997 | > 10.2 | 0.996 | > 10 | 0.997 | > 0.2
25 | SU-DHL-5 (B-cell lymphoma, suspension) | 0.985 | > 10.2 | 0.992 | > 10 | 0.143 | 0.00152

Row | Cell Line | AUC (XMD15-27) | IC50 (XMD15-27) [µM] | AUC (SL 0101-1) | IC50 (SL 0101-1) [µM] | AUC (Temsirolimus) | IC50 (Temsirolimus) [µM]
26 | SU-DHL-6 (B-cell lymphoma, suspension) | 0.927 | 9.03 | 0.952 | > 10 | 0.297 | 0.00399
27 | SU-DHL-16 (B-cell lymphoma, suspension) | 0.967 | > 10.2 | 0.996 | > 10 | 0.548 | 0.0163
28 | SUIT-2 (pancreas, adherent) | 0.97 | > 10.2 | 0.963 | > 10 | 0.911 | > 0.2
29 | SUP-B15 (lymphoblastic leukaemia, suspension) | 0.969 | > 10.2 | 0.971 | > 10 | 0.599 | 0.023
30 | SUP-HD1 (Hodgkin lymphoma, suspension) | 0.95 | > 10.2 | 0.984 | > 10 | 0.634 | 0.0287
31 | SUP-M2 (anaplastic large cell lymphoma, suspension) | 0.729 | 2.37 | 0.994 | > 10 | 0.898 | 0.145
32 | SUP-T1 (T-cell lymphoblastic leukaemia, suspension) | 0.988 | > 10.2 | 0.985 | > 10 | 0.979 | > 0.2
33 | SW13 (adrenal gland, adherent) | 0.988 | > 10.2 | 0.949 | > 10 | 0.804 | 0.101
34 | SW48 (large intestine, adherent) | 0.987 | > 10.2 | 0.945 | > 10 | 0.922 | > 0.2
35 | SW626 (ovary, adherent) | 0.977 | > 10.2 | 0.978 | > 10 | 0.877 | > 0.2
36 | SW684 (fibrosarcoma, adherent) | 0.983 | > 10.2 | 0.981 | > 10 | 0.936 | > 0.2
37 | SW756 (cervix, adherent) | 0.985 | > 10.2 | 0.985 | > 10 | 0.869 | > 0.2
38 | SW780 (bladder, adherent) | 0.986 | > 10.2 | 0.979 | > 10 | 0.405 | 0.00669
39 | SW948 (large intestine, adherent) | 0.982 | > 10.2 | 0.943 | > 10 | 0.979 | > 0.2
40 | SW954 (urogenital system, adherent) | 0.957 | > 10.2 | 0.965 | > 10 | 0.88 | > 0.2
41 | SW962 (urogenital system, adherent) | 0.978 | > 10.2 | 0.951 | > 10 | 0.487 | 0.0114
42 | SW982 (soft tissue, adherent) | 0.947 | > 10.2 | 0.976 | > 10 | 0.598 | 0.0234
43 | SW1271 (small cell lung carcinoma, adherent) | 0.973 | > 10.2 | 0.984 | > 10 | 0.863 | > 0.2
44 | SW1417 (large intestine, adherent) | 0.983 | > 10.2 | 0.976 | > 10 | 0.986 | > 0.2
45 | SW1573 (lung adenocarcinoma, adherent) | 0.981 | > 10.2 | 0.977 | > 10 | 0.775 | 0.108
46 | SW1710 (bladder, adherent) | 0.981 | > 10.2 | 0.961 | > 10 | 0.692 | 0.044
47 | SW1783 (glioma, adherent) | 0.99 | > 10.2 | 0.983 | > 10 | 0.913 | > 0.2
48 | Saos-2 (osteosarcoma, adherent) | 0.981 | > 10.2 | 0.981 | > 10 | 0.932 | > 0.2
49 | T47D (breast, adherent) | 0.977 | > 10.2 | 0.976 | > 10 | 0.706 | 0.0661
50 | T84 (large intestine, adherent) | 0.989 | > 10.2 | 0.988 | > 10 | 0.987 | > 0.2

Row | Cell Line | AUC (XMD15-27) | IC50 (XMD15-27) [µM] | AUC (SL 0101-1) | IC50 (SL 0101-1) [µM] | AUC (Temsirolimus) | IC50 (Temsirolimus) [µM]
51 | T98G (glioma, adherent) | 0.989 | > 10.2 | 0.989 | > 10 | 0.546 | 0.0166
52 | T-T (oesophagus, adherent) | 0.981 | > 10.2 | 0.965 | > 10 | 0.773 | 0.0777
53 | TE-1 (oesophagus, adherent) | 0.982 | > 10.2 | 0.975 | > 10 | 0.886 | > 0.2
54 | TE-4 (oesophagus, adherent) | 0.987 | > 10.2 | 0.987 | > 10 | 0.951 | > 0.2
55 | TE-5 (oesophagus, adherent) | 0.984 | > 10.2 | 0.979 | > 10 | 0.761 | 0.081
56 | TE-6 (oesophagus, adherent) | 0.985 | > 10.2 | 0.985 | > 10 | 0.758 | 0.0801
57 | TE-8 (oesophagus, adherent) | 0.985 | > 10.2 | 0.98 | > 10 | 0.829 | 0.136
58 | TE-9 (oesophagus, adherent) | 0.987 | > 10.2 | 0.962 | > 10 | 0.97 | > 0.2
59 | TE-11 (oesophagus, adherent) | 0.988 | > 10.2 | 0.99 | > 10 | 0.879 | 0.174
60 | TE-12 (oesophagus, suspension) | 0.939 | > 10.2 | 0.979 | > 10 | 0.866 | > 0.2
61 | TE-15 (oesophagus, suspension) | 0.961 | > 10.2 | 0.978 | > 10 | 0.967 | > 0.2
62 | TGBC1TKB (biliary tract, adherent) | 0.989 | > 10.2 | 0.984 | > 10 | 0.734 | 0.058
63 | TGBC11TKB (stomach, adherent) | 0.992 | > 10.2 | 0.985 | > 10 | 0.985 | > 0.2
64 | TGW (neuroblastoma, adherent) | 0.99 | > 10.2 | 0.992 | > 10 | 0.961 | > 0.2
65 | TK10 (kidney, adherent) | 0.981 | > 10.2 | 0.951 | > 10 | 0.859 | > 0.2
66 | TK (B-cell lymphoma, suspension) | 0.99 | > 10.2 | 0.989 | > 10 | 0.905 | > 0.2
67 | TMK-1 (stomach, adherent) | 0.986 | > 10.2 | 0.986 | > 10 | 0.834 | 0.141
68 | TOV-21G (ovary, adherent) | 0.984 | > 10.2 | 0.983 | > 10 | 0.4 | 0.00648
69 | TOV-112D (ovary, adherent) | 0.975 | > 10.2 | 0.971 | > 10 | 0.791 | 0.0906
70 | TT2609-C02 (thyroid, adherent) | 0.984 | > 10.2 | 0.986 | > 10 | 0.764 | 0.077
71 | TT (thyroid, adherent) | 0.983 | > 10.2 | 0.981 | > 10 | 0.75 | 0.0887
72 | TUR (B-cell lymphoma, suspension) | 0.988 | > 10.2 | 0.988 | > 10 | 0.719 | 0.0493
73 | TYK-nu (ovary, adherent) | 0.985 | > 10.2 | 0.968 | > 10 | 0.257 | 0.00237
74 | U-87-MG (glioma, adherent) | 0.98 | > 10.2 | 0.967 | > 10 | 0.914 | > 0.2
